Results on 1 molecule are retold here after paper PMC9079172.

This assay has as its target TDP43^219 (Val^219-TDP43^f), C-terminal fragment of human TDP43, amino acids 219 - 414, bearing N-terminal Val and a C-terminal FLAG tag (human) (UniProt Q13148). Kind of assay: co-IP; anti-TDP43 IP from the soluble fraction of BAG6-KO HEK293T cells co-expressing FLAG-tagged TDP43 fragment with exogenous BAG6 (and TRC35, UBL4a, RNF126); anti-FLAG immunoblot.

No constants are given. Whether binding was seen depends on the method and setting. In cells and extracts the contact can be indirect. Tags and fused reporters may be left off the sequences shown.

B1: ubiquitin-like protein 4A (UBL4A), myc-FLAG-tagged (protein, UniProt P11441 1-157)
chain: MQLTVKALQGRECSLQVPEDELVSTLKQLVSEKLNVPVRQQRLLFKGKALADGKRLSDYSIGPNSKLNLVVKPLEKVLLEEGEAQRLADSPPPQVWQLISKVLARHFSAADASRVLEQLQRDYERSLSRLTLDDIERLASRFLHPEVTETMEKGFSK
Regarding B1, the binding result is “no binding”.
